Read counts are not given, so values of variants with three or more changes are uncertain.

Sequences and labels used below:
B1: LINE1-mini (parent)
chain: GGCAGAGCUCAACACAGCGUGGCAAAGUGGCUGUGGCUAGACUGCC

The variants in this data set derive from B1. As to the kind of experiment: self-cleavage, relative activity (ratio to wild type); higher = more cleavage; in vitro, sequencing; the parent is a self-cleaving ribozyme.
For C10U A12U C15A G35C, the self-cleavage is 0.03.
To G7A C15G A39U belongs 0.24; to G2U A4U C15U G27U G29C U34C, 0.01.
Next, A12C A39U G44A: 0.04; A16C G21U G22U A39C: 0.02.
Next, A14U C15G A16G: 0.01.
For C10U G29A G30U C37U, the self-cleavage stood at 0.02.
Consider C3G C8A G22U C46G, for which the self-cleavage is 0.13.
Next, G19A G21U U43A: 0.01; G22U G33A U38G: 0.04; G2C C15A U38G G44C: 0.04.
As for C3A G19U C42U, the self-cleavage is 0.02.
To G1A G35A G40U belongs 0.06; to U34A G36U U43C C45U, 0.03.
For the variant G5U G17U U32C C42A C46G, the self-cleavage was found to be 0.05.
To G2A G7U G29U belongs 0.13; to G7A U9G U34G C46U, 0.02; to G2A G29A G36C C46A, 0.04.
Next, A16G G33C G44C: 0.03; C3A G7C C18G C42U U43G: 0.09.
On to A6C G21A A25U U32C G44U, for which the self-cleavage is 0.06.
To C13U G21A G29C belongs 0.19.
Take C18U G40U C42U: the self-cleavage came to 0.01.
As for G22C U34G C37U C42U, the self-cleavage amounted to 0.03.
On to G2C U9C A14G C37A, for which the self-cleavage worked out at 0.04.
On to C18G C23A G30A, for which the self-cleavage worked out at 1.2.
To C3A G22C C23U A25C belongs 0.16; to G7A A14G U32G G40U, 0.09.
With A12G G17A A25C C31A, the self-cleavage worked out at 0.03.
To C8A C15G C31G belongs 0.65; to G2A C10G C18U, 0.02.
To A12C C13G C15G C23A G27A U32G A39G belongs 0.01; to G33U U34A C42U, 0.08.
To A6G C10A U32C C42G C45A belongs 0.01; to G1A G17C A41G, 0.03.
G1U G5A G19A G21C G27A: the self-cleavage came to 0.13.
Next, U9A C23U C37A: 0.08; A6G A12C G40A: 0.01.
Next, G7U C10G A11C A39C: 0.
Next, G1C C13U U32A: 0.
A11U C13A U34A: the self-cleavage was determined as 0.01.
To G7C G17C U38A belongs 0.06.
To C3G G22U G27A G36A C37G A41U belongs 0.01; to G1U C15A C18A G22C U32G, 0.02.
Next, A11G C23G G33A: 0.01.
For the variant G7U C13A A24C G33U, the self-cleavage turned out to be 0.03.
Next, C3A A4U A6G U9A G40A G44U: 0.71.
To C13G G35U C37G C42A belongs 0.05; to G1C G2A A26U, 0.19.
Next, C8A A11U G22C C45U: 0.02.
Regarding C8G A26U C31U, the self-cleavage amounted to 0.06.
Next, G5A G7U A25G: 0.37; C8U U20A C23U: 0.06; A4G C13U U38A C42A G44C: 0.04.
For C18G U20G G27A, the self-cleavage was determined as 0.03.
To U9G C18U C23U G36C belongs 0.05; to C13A G30A C31G, 0.03; to A6C G17U A26U, 0.03.
Next, C13U G40A C46A: 0.15; G17C G27A C31A G40U: 0.04.
Next, G1A A6G C31U U38G: 0.01; C3A G33C U38C: 0.03; A16G C37G A39C: 0.
On to G5A G17A G30U C46U, for which the self-cleavage worked out at 0.06.
Turning to C3U C10A A11G C31G, the self-cleavage amounted to 0.01.
On to G1C G17A C23A G29U U32G G36C C45A, for which the self-cleavage stood at 0.02.
To G1U G5C G17A G33C belongs 0.06; to A6U G29A C31A, 0.49.
Take G30U C31U G36U: the self-cleavage is 0.03.
Next, G7A A11U A12C A39G: 0.03; C13U A26C U34C C37U A41U: 0.
To A4C G7U A26C belongs 0.16; to G5C U9C G29A, 0.03.
Regarding C13U A16G G17C C18A, the self-cleavage was 0.07.
Next, G5A G7C A25U C45A: 0.03; A6G C10A U43A C45G: 0.02.
To G1U A12C A41U belongs 0.01; to G7C G19U U28A, 0.03; to G19C C23U C37A, 0.02.
Next, C3U G30A U34C C45U: 0.08; C3U A11G C18U: 0.04; C3U A11U G29C C46A: 0.01.
With G17A A25G A26G U34A G36C A41C C46A, the self-cleavage was determined as 0.
Regarding G1C C8G A25G G27C G30U A39U G44U, the self-cleavage stood at 0.
To G19C A39G U43G G44A belongs 0.01; to A6G A25G G44U C45G, 0.02; to C10A G22C G27U G30A G33A, 0.
To C13G G17A G21U A26G G44A belongs 0.07; to G2A A4U G21A G22U C45A, 0.82.
As for G5U G19U G27U, the self-cleavage came out at 0.04.
For the variant C3A A6C C37U U43C, the self-cleavage was 0.29.
For C3A U9G C15U G33C, the self-cleavage is 0.56.
In the case of A6C G22C G40U, the self-cleavage turned out to be 0.02.
On to G7A A25U C42U, for which the self-cleavage turned out to be 0.24.
To G22U C23A C31U belongs 0.64.
On to G21A G27U G29A, for which the self-cleavage came out at 0.78.
In the case of U9A C10U G30U, the self-cleavage was found to be 0.05.
To C13U G19U G30A C31A C42A C45G belongs 0.02; to G30A C31A U32C, 0.12.
To A6C U20A C37U belongs 0.03.
Take G29A A41C C45U: the self-cleavage was 0.22.
To G5C A12U G30C belongs 0.01.
With A11U C15A C23A U43G, the self-cleavage came to 0.01.
To G17A G21U G33C belongs 0.1; to C15U U32A C45A, 0.05; to G2A A16G G29C G30A G36U A39G, 0.1.
To U9A G19U C45U belongs 0.09; to C3G G7U C8A C45G, 0.42.
Next, U9C G29C U43A: 0.02; G7U C23U A39G: 0.04.
On to A14G U28A G44A C45U, for which the self-cleavage worked out at 0.08.
To G35A G36A C45A belongs 0.07; to U9A C42U U43C, 0.25; to C10G A11U G30U U34C G35A, 0.01.
To A12G A14G G19C A25C G29A belongs 0.11.
With A6G A25G G33U C37U C42U, the self-cleavage was found to be 0.04.
To C10A A16G G21C A24C G27U belongs 0.02; to C8A G44C C46G, 0.58.
Next, C8A C13A G21A: 0.95.
Next, G29U C37G G40U: 0.1.
For G21U U38C A39C, the self-cleavage turned out to be 0.09.
To C8G A12C U20A U43G belongs 0.01.
Next, U9A C15U G35C G44C: 0.56; C3A A4U C10U G19U A26C G40C: 0.05; G2U U32C G40U: 0.16.
Next, C23G A26G G35U: 0.03.
Regarding A6C G21U U32A, the self-cleavage stood at 0.02.
Next, C3G G7A A12U C23U C46U: 2.75.
For G5A C23A U32C G35A C45A, the self-cleavage was 0.03.
Regarding A4U C15A G35C C42U G44U C45U C46A, the self-cleavage amounted to 0.01.
As for C10A G33U U38C U43A, the self-cleavage came to 0.
Next, C23A G29C U43G C45U: 0.01; G2U G5A C13A: 0.11.
As for G7U A11C A25U, the self-cleavage stood at 0.
To C8U A14C C18U U28A belongs 0.01; to G7U C15A A24C G33U U38C A39C, 0.05; to C15A U34C U43G, 0.
Next, C10A G21A U43A: 0.02; A6G G7U C18A G36A: 0.07.
Next, G2C C10U C45G: 0.24.
For A11C G22U G29U, the self-cleavage worked out at 0.
Next, G5A G7C U34A: 0.05; G5A G17U G21U G40U: 0.12; G1A C10A G21C G22A G27C G36C: 0.04.
On to A4U C13A A25C G30U C31A G33U C46G, for which the self-cleavage amounted to 0.03.
To A4G G7U A16C U34G belongs 0.06.
On to C8G C15A A26C, for which the self-cleavage was found to be 0.02.
Next, A4U U20C U28C: 0.05; G17U G30C A41U C42U: 0.01; G1U A4U C31G: 0.05.
To G2A G5U U32C belongs 0.06.
For the variant A14G C31U A41G G44A, the self-cleavage turned out to be 0.04.
Next, G2C C13U A14U C18A G35C A41U: 0.01; G1U C13A G21A A25G: 0.06.
To G7A U9A G21A A39U belongs 0.71; to G2U G7A U9C, 0.04.
Next, G17C U28G G35C: 0.05; G2U C18A U20C A26C C31G G35A: 0.01.
G21A U43C C46U: the self-cleavage was found to be 0.04.
To G19U G36U U38A belongs 0.02.
To C3U G7A G22U A24U U34A belongs 0.09; to G5A G30U U32A G33U, 0.04; to G5C C37U G40U, 0.
Next, G17C U20C A26C G30C C37A: 0.02; G1C G5U C18A G30C C31G: 0.
With A14G A24C A39C, the self-cleavage is 0.04.
For the variant G2U A4G G5A A14C G22C, the self-cleavage was 0.03.

These data come from the RNAGym collection of RNA variant scans (doi:10.7554/elife.90254).
